According to PubChem BioAssay AID485367 (National Center for Advancing Translational Sciences (NCATS), 2010):
Among all 330,000 compounds or so, about 560 (0.17%) were called active. This list was built around the results that the source calls inconclusive (neither active nor inactive); the mix of calls is not that of the screen. Calls follow the shape of the dose curve; as a rule, active = well fitted inhibition curve with a large enough effect; inconclusive = small, poorly fitted or top-dose-only effect, or effect the other way; inactive = flat fitted curve, though single readings scatter. Potencies of inconclusive entries are left out as doubtful fits.

Target: ATP-dependent 6-phosphofructokinase (Trypanosoma brucei brucei) (UniProt O15648)
Sequence of UniProt O15648 (O15648 whole entry, looked up): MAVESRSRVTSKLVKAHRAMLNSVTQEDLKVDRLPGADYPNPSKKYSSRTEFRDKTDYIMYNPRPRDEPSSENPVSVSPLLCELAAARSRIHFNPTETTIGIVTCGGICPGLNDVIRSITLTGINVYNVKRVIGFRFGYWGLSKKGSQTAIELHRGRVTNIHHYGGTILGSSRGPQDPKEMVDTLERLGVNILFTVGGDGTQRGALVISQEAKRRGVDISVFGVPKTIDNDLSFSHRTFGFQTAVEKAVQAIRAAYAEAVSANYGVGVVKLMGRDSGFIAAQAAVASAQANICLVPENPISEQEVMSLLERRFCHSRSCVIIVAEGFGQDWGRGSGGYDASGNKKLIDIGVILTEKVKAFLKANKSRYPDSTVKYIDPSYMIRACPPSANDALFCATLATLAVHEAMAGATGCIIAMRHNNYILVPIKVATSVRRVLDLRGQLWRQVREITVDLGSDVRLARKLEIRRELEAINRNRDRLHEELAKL
Assay: qHTS Assay to Find Inhibitors of T. brucei phosphofructokinase; also: nearly all actives have a fitted effect of over 60% in size;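 as to activity, negative = inhibition: 0% = uninhibited 1x PFK enzyme wells and -100% = no-enzyme wells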
Conditions: T. brucei PFK, ADP-Glo luminescence; activity, negative = inhibition: at 57.5 µM (top of the series)
How it was run: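 Compounds were pin-transferred as a titration series up to 57 uM into substrate buffer (0.5 mM F6P, 0.1 mM ATP, pH 8.0), then 1.25 nM PFK was added and reactions ran 45 min before ADP-Glo detection.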
Potency is read from the fitted curve at half-maximal effect; tags tell the direction and shape of the fitted curve.

| SMILES | Potency | activity, negative = inhibition |
| --- | --- | --- |
| O=C(Nc1ccc(Br)cc1)Nn1cnnc1 | inconclusive [falling, single point] | – |
| O=C(O)Cc1ccc(-n2cccc2)cc1 | inconclusive [falling, single point] | – |
| COc1ccc(-c2c3c([nH]c(=S)c2C#N)CCC3)cc1 | inconclusive [falling, single point] | – |
| CCOC(=O)c1cnc2ccc(OCC)cc2c1NCc1cccnc1 | – | inactive: -4.76% |
| Cc1ccc(-n2c(N)c(C(=O)N3CCN(C)CC3)sc2=S)cc1 | active: 13.5 µM | – |
| Cc1[nH]n(-c2ccccc2)c(=O)c1/C=N/c1nn[nH]n1 | inconclusive [falling, single point] | – |
| Nc1ccc(-n2cc(-c3ccccc3)[nH]c2=S)cc1 | inconclusive [falling, full curve] | – |
| CN(C)c1ccc(C(=O)N=c2sccn2C)cc1[N+](=O)[O-] | – | inactive: -0.391% |
| O=C(O)C1OC(Oc2c(-c3ccc(O)c(O)c3)oc3cc(O)cc(O)c3c2=O)C(O)C(O)C1O (centres undefined) | inconclusive [falling, single point] | – |
| O=C(Oc1ccc(Cl)c(Cl)c1)C1=CC=CN2CCS(=O)(=O)N=C12 | inconclusive [falling, single point] | – |
| O=C1CC(NC2CCN(C(=O)c3cccc(F)c3)CC2)C(=O)N1 (centres undefined) | inconclusive [falling, single point] | – |
| CCN(CC)CCOC(=O)c1ccc(N/C=C(/C#N)c2nc(-c3cc4ccccc4oc3=O)cs2)cc1 | inconclusive [activator, full curve] | – |
| Cc1ccccc1C(=O)Nc1ccc2c(c1)nc(CCNC(=O)c1ccco1)n2C | – | inactive: 0.502% |
| CN(C)S(=O)(=O)c1ccc(C(=O)OCC(=O)NCc2ccco2)cc1 | inconclusive [falling, full curve] | – |
| O=C(c1ccc(CSc2nc3ccncc3[nH]2)cc1)N1CCN(c2cccc(Cl)c2)CC1 | inconclusive [falling, single point] | – |
| Cc1c(Br)c(O)c(Br)c2sc(=O)oc12 | inconclusive [falling, partial curve] | – |
| CCc1nnc(NC(=O)C(=O)NCCOC(=O)c2ccccc2Cl)s1 | inconclusive [activator, partial curve] | – |
| O=[N+]([O-])c1ccc(C[n+]2ccc(Cc3ccccc3)cc2)cc1 | inconclusive [falling, single point] | – |
| CCOC(=O)c1c(-c2ccc(C)cc2)csc1NC1=NS(=O)(=O)c2ccccc21 | inconclusive [falling, single point] | – |
| CCN1/C(=C/C=C/c2oc3ccc(-c4ccccc4)cc3[n+]2CC)Oc2ccc(-c3ccccc3)cc21 | inconclusive [activator, full curve] | – |
| CCOC(=O)Nc1ccc2c(c1)N(C(=O)CCN1CCN(C)CC1)c1ccccc1S2 | inconclusive [falling, single point] | – |
| CC(C)NC(=O)COC(=O)/C=C/c1ccco1 | inconclusive [falling, single point] | – |
| O=C(Nc1cccc(Cl)c1)c1nc[nH]c1C(=O)NCCCCNC(=O)c1[nH]cnc1C(=O)Nc1cccc(Cl)c1 | – | inactive: -0.124% |

| SMILES | Potency | activity, negative = inhibition |
| --- | --- | --- |
| Cc1ccccc1N1CCN(C(=S)c2ccc(-c3cccc([N+](=O)[O-])c3)o2)CC1 | inconclusive [falling, single point] | – |
| O=C(CSc1ncn[nH]1)c1ccccc1 | inconclusive [falling, single point] | – |
| N#Cc1ccc(OCC(=O)Nc2ccc3[nH]c(=O)[nH]c3c2)cc1 | inconclusive [falling, single point] | – |
| Cc1c(C(=O)OCc2ccccc2)[nH]c2c1C(=O)CC(c1ccco1)C2 (centres undefined) | inconclusive [falling, partial curve] | – |
| Cc1cc(=O)oc2c(C)c(OCC(=O)N3CCN(c4cccc(Cl)c4)CC3)ccc12 | active: 21.3 µM | – |
| O=S(=O)(Nc1ccc(C(F)(F)F)cc1)c1cnc[nH]1 | – | inactive: -0.969% |
| Brc1ccc(-c2nn3c(-c4ccccn4)nnc3s2)o1 | inconclusive [falling, single point] | – |
| CC1=CC2=NC(=O)/C(=C\c3cccn3CCOc3ccccc3)C(=N)N2O1 | inconclusive [falling, single point] | – |
| CCN(CC)S(=O)(=O)c1cc(NC(=O)c2ccc(Br)s2)ccc1C | – | inactive: -0.576% |
| C=CCc1c(C)nc(-c2ccccc2)nc1N/N=C/c1ccncc1 | – | inactive: -1.29% |
| Cc1cc2c(n1-c1ccc(C(=O)O)cc1)CCCCC2 | inconclusive [falling, full curve] | – |
| Cc1ccc(NC2=C(Cl)C(=O)OC2OC(=O)c2ccco2)cc1C (centres undefined) | – | inactive: -0.328% |
| S=C(NCC1CCCO1)N1CCN(c2ccc(Cl)c(Cl)c2)CC1 (centres undefined) | inconclusive [falling, single point] | – |
| O=C(c1cccc(-n2cccc2)c1)N1CCN(S(=O)(=O)c2ccccc2)CC1 | inconclusive [falling, full curve] | – |
| Cc1cc(SCC(=O)N2CCCC2=O)nc2c(C)cccc12 | inconclusive [falling, single point] | – |
| C#CCOCCOCCOCCNc1nc(N2CCN(C(=O)CCCCCCCCCCNC(=O)[C@@H](CCSC)n3cc(CCO)nn3)CC2)nc(N2CCN(C(=O)CCCCCCCCCCNC(=O)[C@H]([C@@H](C)CC)n3cc(CCCCCN)nn3)CC2)n1 | inconclusive [falling, single point] | – |
| CC1(C)CC(=O)C2=C(C1)Nc1ccccc1NC2 | – | inactive: 3.2% |
| O=C(OCc1csc(-c2ccccc2)n1)C1=NN(c2ccccc2)C(=O)CC1 | inconclusive [falling, single point] | – |
| CC(C)N1C(=O)/C(=C\c2nc3ccccc3c(=O)[nH]2)c2ccccc21 | inconclusive [falling, single point] | – |
| O=C(CNc1n[nH]c(=O)[nH]c1=O)N/N=C/C1CC=CCC1 (centres undefined) | – | inactive: 0.952% |
| CCOc1ccccc1-c1c2cc(O)c(=O)cc-2oc2cc(O)c(O)cc12 | inconclusive [falling, single point] | – |
| Clc1ccccc1-c1ncc2ccccn12 | inconclusive [falling, single point] | – |
| O=c1cc(O)c2sc3nc(-c4cccnc4)cc(C(F)(F)F)c3c2[nH]1 | inconclusive [falling, full curve, poor fit] | – |

| SMILES | Potency | activity, negative = inhibition |
| --- | --- | --- |
| COc1ccc(-n2cnnc2SCC(=O)c2cc(C)n(Cc3cccs3)c2C)cc1 | inconclusive [falling, single point] | – |
| CNCc1c(OCc2ccccc2F)ccc2ccccc12 | inconclusive [falling, single point] | – |
| CC1CCCC(C)N1C(=O)CSc1nnc(C2CCCCC2)o1 (centres undefined) | – | inactive: 2.39% |
| COc1cc(-c2nnc3n2CCCCC3)cc(OC)c1OC | – | inactive: 0.86% |
| Cc1ccc(N2C(=O)c3ccccc3C2C(=O)c2ccc(O)cc2O)cc1 (centres undefined) | inconclusive [falling, single point] | – |
| COc1ccc(CCNc2nc(-c3sc(C)nc3C)cs2)cc1OC | inconclusive [falling, single point] | – |
| O=C(CSc1ccccn1)Nc1ccc2[nH]c(=O)[nH]c2c1 | inconclusive [falling, single point] | – |
| Nc1c(C(=O)Nc2ccc3c(c2)OCCO3)nnn1Cc1cccc(Br)c1 | inconclusive [falling, single point] | – |
| CC1C/C(=N/N2C(=O)CSC2=S)CC(C)(C)C1 (centres undefined) | inconclusive [activator, single point] | – |
| CCc1nc2oc3cc(OC)ccc3c(=O)c2c(=O)n1Cc1ccco1 | inconclusive [falling, single point] | – |
| COC(=O)CSc1nc2c(c(-c3ccco3)c1C#N)CCCC2 | inconclusive [falling, single point] | – |
| CCOC(=O)C1=C(N)OC2=C(C(=O)CCC2)C1c1sccc1C (centres undefined) | inconclusive [activator, single point] | – |
| Clc1cccc(C[n+]2cc(-c3ccccc3)n3c2CCC3)c1 | inconclusive [falling, partial curve] | – |
| Cc1nc2cc(-c3ccsc3-n3c(C)ccc3C)[nH]n2c(=O)c1Cl | inconclusive [falling, full curve] | – |
| CCCCn1c(SCN2C(=O)c3ccccc3C2=O)nc2cc(S(N)(=O)=O)ccc21 | – | inactive: 0.216% |
| O=c1c(=NNc2ccccc2Cl)c(=O)c2ccccc12 | – | inactive: 2.74% |
| O=C(CSC1=NCCS1)NC(c1ccccc1)c1ccccc1 | inconclusive [falling, partial curve] | – |
| Cc1nc2ccccc2nc1SCC(=O)N1CCC(C)CC1 | – | inactive: 1.23% |
| CC(/C=N/NC(=O)Cc1cccn1C)=C\c1ccco1 | inconclusive [falling, single point] | – |
| Cc1ccc(C)c(-n2sc3ccc(F)cc3c2=O)c1 | active: 3.01 µM | – |
| O=c1c(C(c2ccc(O)cc2)c2c(O)nc3n(c2=O)CCCS3)c(O)nc2n1CCCS2 | inconclusive [activator, single point] | – |
| CN1C[C@@H]2C(c3ccc(Cl)nc3)C3(c4ccccc4)CC2(C3)[C@H]1c1ccccc1 (some centres undefined) | – | inactive: -6.39% |
| CCOC(=O)C1CCN(CC(C)(C)NS(=O)(=O)c2ccc(C)cc2)CC1 | inconclusive [falling, single point] | – |
